# Reference: the supplement of paper PMC8728848
# Some of the results follow.
# Key:
# Experiment in all cases: glycan array binding signal (z-score within array); higher = stronger binding
# Details in all cases: glycan notation: IUPAC condensed, linker removed
# [1] = biological target: Fuc(a1-2)Gal
# Procedure, shortened: (§1)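 The binding signal is a Z-score computed within each array. Data were drawn from 3228 arrays in the Consortium for Functional Glycomics database, restricted to those with a known protein sequence. Scores were averaged over arrays of the same protein sequence at different concentrations or buffers, and over linkers, and negative values can be taken as non-binding.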
# [2] = biological target: Fuc(a1-2)Gal(b1-3)GalNAc
# Procedure, shortened: as §1
# [3] = biological target: Fuc(a1-2)Gal(b1-3)GalNAc(b1-3)Gal
# Procedure, shortened: as §1
# [4] = biological target: Fuc(a1-2)Gal(b1-3)GalNAc(b1-3)Gal(a1-4)Gal(b1-4)Glc
# Procedure, shortened: as §1
# [5] = biological target: Fuc(a1-2)Gal(b1-3)GalNAc(b1-4)[Neu5Ac(a2-3)]Gal(b1-4)Glc
# Procedure, shortened: as §1
# [6] = biological target: Fuc(a1-2)Gal(b1-3)GlcNAc
# Procedure, shortened: as §1
# [7] = biological target: Fuc(a1-2)Gal(b1-3)GlcNAc(b1-3)Gal(b1-4)Glc
# Procedure, shortened: as §1
# [8] = biological target: Fuc(a1-2)Gal(b1-3)[Fuc(a1-4)]GlcNAc
# Procedure, shortened: as §1
# [9] = biological target: Fuc(a1-2)Gal(b1-4)Glc
# Procedure, shortened: as §1
# [10] = biological target: Fuc(a1-2)Gal(b1-4)Glc6S
# Procedure, shortened: as §1
# [11] = biological target: Fuc(a1-2)Gal(b1-4)GlcNAc
# Procedure, shortened: as §1
# [12] = biological target: Fuc(a1-2)Gal(b1-4)GlcNAc(b1-3)Gal(b1-4)GlcNAc
# Procedure, shortened: as §1
# [13] = biological target: Fuc(a1-2)Gal(b1-4)GlcNAc(b1-3)Gal(b1-4)GlcNAc(b1-3)Gal(b1-4)GlcNAc
# Procedure, shortened: as §1
# [14] = biological target: Fuc(a1-2)Gal(b1-4)GlcNAc6S
# Procedure, shortened: as §1
# [15] = biological target: Fuc(a1-2)Gal(b1-4)[Fuc(a1-3)]GlcNAc
# Procedure, shortened: as §1
# [16] = biological target: Fuc(a1-2)Gal(b1-4)[Fuc(a1-3)]GlcNAc(b1-3)Gal(b1-4)[Fuc(a1-3)]GlcNAc
# Procedure, shortened: as §1
# [17] = biological target: Fuc(a1-2)Gal(b1-4)[Fuc(a1-3)]GlcNAc(b1-3)Gal(b1-4)[Fuc(a1-3)]GlcNAc(b1-3)Gal(b1-4)[Fuc(a1-3)]GlcNAc
# Procedure, shortened: as §1
# [18] = biological target: Fuc(a1-2)Gal6S(b1-4)Glc
# Procedure, shortened: as §1
# [19] = biological target: Fuc(a1-2)Gal6S(b1-4)Glc6S
# Procedure, shortened: as §1
# [20] = biological target: Fuc(a1-2)Gal6S(b1-4)GlcNAc
# Procedure, shortened: as §1
# [21] = biological target: Fuc(a1-2)[Gal(a1-3)]Gal
# Procedure, shortened: as §1
# [22] = biological target: Fuc(a1-2)[Gal(a1-3)]Gal(b1-3)GlcNAc
# Procedure, shortened: as §1
# [23] = biological target: Fuc(a1-2)[Gal(a1-3)]Gal(b1-4)Glc
# Procedure, shortened: as §1
# [24] = biological target: Fuc(a1-2)[Gal(a1-3)]Gal(b1-4)GlcNAc
# Procedure, shortened: as §1
# [25] = biological target: Fuc(a1-2)[Gal(a1-3)]Gal(b1-4)[Fuc(a1-3)]GlcNAc
# Procedure, shortened: as §1
# [26] = biological target: Fuc(a1-2)[Gal(a1-4)]Gal(b1-4)GlcNAc
# Procedure, shortened: as §1
# [27] = biological target: Fuc(a1-2)[GalNAc(a1-3)]Gal
# Procedure, shortened: as §1
# [28] = biological target: Fuc(a1-2)[GalNAc(a1-3)]Gal(b1-3)GlcNAc
# Procedure, shortened: as §1
# [29] = biological target: Fuc(a1-2)[GalNAc(a1-3)]Gal(b1-4)Glc
# Procedure, shortened: as §1
# [30] = biological target: Fuc(a1-2)[GalNAc(a1-3)]Gal(b1-4)GlcNAc
# Procedure, shortened: as §1
# [31] = biological target: Fuc(a1-2)[GalNAc(a1-3)]Gal(b1-4)[Fuc(a1-3)]GlcNAc
# Procedure, shortened: as §1
# [32] = biological target: Fuc(a1-2)[GalNAc(a1-4)]Gal(b1-4)GlcNAc
# Procedure, shortened: as §1
# [33] = biological target: Fuc(a1-2)[GalNAc(b1-3)]Gal
# Procedure, shortened: as §1
# [34] = biological target: Fuc(a1-3)GlcNAc
# Procedure, shortened: as §1
# [35] = biological target: Fuc(a1-3)[Gal(b1-4)]Glc6S
# Procedure, shortened: as §1
# [36] = biological target: Fuc(a1-3)[Gal(b1-4)]GlcNAc
# Procedure, shortened: as §1
# [37] = biological target: Fuc(a1-3)[Gal(b1-4)]GlcNAc(b1-2)Man(a1-3)[Fuc(a1-3)[Gal(b1-4)]GlcNAc(b1-2)Man(a1-6)]Man(b1-4)GlcNAc(b1-4)GlcNAc
# Procedure, shortened: as §1
# [38] = biological target: Fuc(a1-3)[Gal(b1-4)]GlcNAc(b1-2)Man(a1-6)[Gal(b1-4)GlcNAc(b1-2)Man(a1-3)]Man(b1-4)GlcNAc(b1-4)GlcNAc
# Procedure, shortened: as §1
# [39] = biological target: Fuc(a1-3)[Gal(b1-4)]GlcNAc(b1-3)Gal(b1-3)[Fuc(a1-4)]GlcNAc
# Procedure, shortened: as §1
# [40] = biological target: Fuc(a1-3)[Gal(b1-4)]GlcNAc(b1-4)Gal(b1-4)[Fuc(a1-3)]GlcNAc
# Procedure, shortened: as §1
# [41] = biological target: Fuc(a1-3)[Gal(b1-4)]GlcNAc(b1-4)Gal(b1-4)[Fuc(a1-3)]GlcNAc(b1-4)Gal(b1-4)[Fuc(a1-3)]GlcNAc
# Procedure, shortened: as §1
# [42] = biological target: Fuc(a1-3)[Gal(b1-4)]GlcNAc6S
# Procedure, shortened: as §1
# [43] = biological target: Fuc(a1-3)[Gal3S(b1-4)]Glc6S
# Procedure, shortened: as §1
# [44] = biological target: Fuc(a1-3)[Gal3S(b1-4)]GlcNAc
# Procedure, shortened: as §1
# [45] = biological target: Fuc(a1-3)[Gal3S(b1-4)]GlcNAc6S
# Procedure, shortened: as §1
# [46] = biological target: Fuc(a1-3)[GalNAc(b1-4)]GlcNAc
# Procedure, shortened: as §1
# [47] = biological target: Fuc(a1-4)GlcNAc
# Procedure, shortened: as §1
# [48] = biological target: Fuc(b1-3)GlcNAc
# Procedure, shortened: as §1
# [49] = biological target: Gal(a1-2)Gal
# Procedure, shortened: as §1
# [50] = biological target: Gal(a1-3)Gal
# Procedure, shortened: as §1
# [51] = biological target: Gal(a1-3)Gal(b1-3)GlcNAc
# Procedure, shortened: as §1
# [52] = biological target: Gal(a1-3)Gal(b1-4)Glc
# Procedure, shortened: as §1
# [53] = biological target: Gal(a1-3)Gal(b1-4)GlcNAc
# Procedure, shortened: as §1
# [54] = biological target: Gal(a1-3)Gal(b1-4)[Fuc(a1-3)]GlcNAc
# Procedure, shortened: as §1
# [55] = biological target: Gal(a1-3)GalNAc
# Procedure, shortened: as §1
# [56] = biological target: Gal(a1-3)[Gal(a1-4)]Gal(b1-4)GlcNAc
# Procedure, shortened: as §1
# [57] = biological target: Gal(a1-4)Gal(b1-4)Glc
# Procedure, shortened: as §1
# [58] = biological target: Gal(a1-4)Gal(b1-4)GlcNAc
# Procedure, shortened: as §1
# [59] = biological target: Gal(a1-4)GlcNAc
# Procedure, shortened: as §1
# [60] = biological target: Gal(a1-6)Glc
# Procedure, shortened: as §1
binder,measurement,setting,value
"MCI4 (Toxoplasma gondii), Q9XZH7 (protein) MRASLPVHLVVCTQLSAVWFGVAKAHGGHRLEPHVPGFLQGFTDITPAGDDVSANVTSSEPAKLDLSCVHSDNKGSRAPTIGEPVPDVSLEQCAAQCKAVDGCTHFTYNDDSKMCHVKEGKPDLYDLTGGKTASRSCDRSCFEQHVSYEGAPDVMTAMVTSQSADCQAACAADPSCEIFTYNEHDQKCTFKGRGFSAFKERGVLGVTSGPKQFCDEGGKLTQEEMEDQISGCIQLSDVGSMTADLEEPMEADSVGACMERCRCDGRCTHFTFNDNTRMCYLKGDKMQLYSSPGDRTGPKSCDSSCFSNGVSYVDDPATDVETVFEISHPIYCQVICAANPLCTVFQWYASEAKCVVKRKGFYKHRKTGVTGVTVGPREFCDFGGSIRDREEADAVGSDDGLNAEATMANSPDFHDEVECVHTGNIGSKAQTIGEVKRASSLSECRARCQAEKECSHYTYNVKSGLCYPKRGKPQFYKYLGDMTGSRTCDTSCLRRGVDYSQGPEVGKPWYSTLPTDCQVACDAEDACLVFTWDSATSRCYLIGSGFSAHRRNDVDGVVSGPYTFCDNGENLQVLEAKDTE",glycan array binding signal (z-score),[1],-0.217
same,glycan array binding signal (z-score),[2],-0.219
same,glycan array binding signal (z-score),[3],-0.203
same,glycan array binding signal (z-score),[4],-0.22
same,glycan array binding signal (z-score),[5],-0.197
same,glycan array binding signal (z-score),[6],-0.202
same,glycan array binding signal (z-score),[7],-0.197
same,glycan array binding signal (z-score),[8],-0.212
same,glycan array binding signal (z-score),[9],-0.217
same,glycan array binding signal (z-score),[10],-0.201
same,glycan array binding signal (z-score),[11],-0.204
same,glycan array binding signal (z-score),[12],-0.214
same,glycan array binding signal (z-score),[13],-0.219
same,glycan array binding signal (z-score),[14],-0.213
same,glycan array binding signal (z-score),[15],-0.208
same,glycan array binding signal (z-score),[16],-0.21
same,glycan array binding signal (z-score),[17],-0.227
same,glycan array binding signal (z-score),[18],-0.184
same,glycan array binding signal (z-score),[19],-0.192
same,glycan array binding signal (z-score),[20],-0.208
same,glycan array binding signal (z-score),[21],-0.178
same,glycan array binding signal (z-score),[22],-0.202
same,glycan array binding signal (z-score),[23],-0.206
same,glycan array binding signal (z-score),[24],-0.195
same,glycan array binding signal (z-score),[25],-0.204
same,glycan array binding signal (z-score),[26],-0.203
same,glycan array binding signal (z-score),[27],-0.186
same,glycan array binding signal (z-score),[28],-0.2
same,glycan array binding signal (z-score),[29],-0.22
same,glycan array binding signal (z-score),[30],-0.21
same,glycan array binding signal (z-score),[31],-0.192
same,glycan array binding signal (z-score),[32],-0.186
same,glycan array binding signal (z-score),[33],-0.207
same,glycan array binding signal (z-score),[34],-0.185
same,glycan array binding signal (z-score),[35],-0.226
same,glycan array binding signal (z-score),[36],-0.186
same,glycan array binding signal (z-score),[37],-0.214
same,glycan array binding signal (z-score),[38],-0.201
same,glycan array binding signal (z-score),[39],-0.192
same,glycan array binding signal (z-score),[40],-0.22
same,glycan array binding signal (z-score),[41],-0.169
same,glycan array binding signal (z-score),[42],-0.219
same,glycan array binding signal (z-score),[43],-0.219
same,glycan array binding signal (z-score),[44],-0.208
same,glycan array binding signal (z-score),[45],-0.225
same,glycan array binding signal (z-score),[46],-0.199
same,glycan array binding signal (z-score),[47],-0.198
same,glycan array binding signal (z-score),[48],-0.212
same,glycan array binding signal (z-score),[49],-0.196
same,glycan array binding signal (z-score),[50],-0.195
same,glycan array binding signal (z-score),[51],-0.206
same,glycan array binding signal (z-score),[52],-0.117
same,glycan array binding signal (z-score),[53],-0.213
same,glycan array binding signal (z-score),[54],-0.172
same,glycan array binding signal (z-score),[55],-0.206
same,glycan array binding signal (z-score),[56],-0.214
same,glycan array binding signal (z-score),[57],-0.211
same,glycan array binding signal (z-score),[58],-0.2
same,glycan array binding signal (z-score),[59],-0.175
same,glycan array binding signal (z-score),[60],-0.202
